The shares of active, inactive and inconclusive entries below differ from those in the screen. For part of these data: Where the call is inconclusive, the potency comes from a doubtful curve fit. Activity calls are given as the source filed them. Calls follow the shape of the dose curve; as a rule, active = well fitted curve in the direction sought with a large enough effect; inconclusive = small, poorly fitted or top-dose-only effect, or another doubt; inactive = no such curve, though single readings can be large; an effect the other way counts as inactive or inconclusive.
Assays:
[1] = target: D(1A) dopamine receptor (Homo sapiens) (UniProt P21728); assay: HTS Assay for Allosteric Agonists of the Human D1 Dopamine Receptor: Primary Screen for Antagonists (AID 488983); settings: D1 receptor cell assay, antagonist mode, qHTS titration; series mostly up to 41.8 µM;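 also: calcium flux response to an EC80 dopamine challenge measured with no-wash dye; nearly all actives have a fitted effect of over 65% in size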; also: potency is read from the fitted curve at half-maximal effect
Chain of UniProt P21728 (P21728 whole entry, looked up): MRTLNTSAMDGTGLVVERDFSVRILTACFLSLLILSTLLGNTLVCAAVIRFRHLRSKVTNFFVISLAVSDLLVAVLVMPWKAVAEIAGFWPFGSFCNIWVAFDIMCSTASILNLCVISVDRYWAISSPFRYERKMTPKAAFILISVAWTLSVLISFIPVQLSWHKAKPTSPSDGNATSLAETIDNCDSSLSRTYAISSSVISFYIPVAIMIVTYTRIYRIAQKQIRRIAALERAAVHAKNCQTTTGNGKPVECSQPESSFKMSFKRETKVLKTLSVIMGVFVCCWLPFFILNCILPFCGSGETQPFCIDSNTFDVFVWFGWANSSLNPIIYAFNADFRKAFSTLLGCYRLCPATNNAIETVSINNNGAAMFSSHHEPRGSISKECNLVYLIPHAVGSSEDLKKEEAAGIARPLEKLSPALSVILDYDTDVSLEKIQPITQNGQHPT
Outline: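 Tetracycline-induced HEK293 T-REx D1 line, force-coupled to calcium flux, read with no-wash calcium dye. Compound added after 10 s baseline, read 180 s for agonism, then EC80 dopamine added and read a further 180 s.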

[2] = Quantitative High-Throughput drug screen in 47 multiple myeloma cell lines against the NCATS MIPE library collection: JIM1_ECACC cell viability assay (AID 1918964); settings: JIM1 myeloma viability, CellTiter-Glo ATP luminescence, 48 h; series mostly up to 45.8 µM
Outline: (§1)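 Viability readout: CellTiter-Glo luminescence following 5 min room-temperature incubation with reagent. Prior exposure: 48 h, 37C, humidified 5% CO2, 500 cells per well.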

[3] = Quantitative High-Throughput drug screen in 47 multiple myeloma cell lines against the NCATS MIPE library collection: INA6_PLB cell viability assay (AID 1918965; also: nearly all actives have a fitted effect of over 55% in size; also: potency is read from the fitted curve at half-maximal effect); settings: INA6 myeloma viability, CellTiter-Glo ATP luminescence, 48 h; viability (% of control): at 45.8 µM (top of the series)
Outline: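 Myeloma cell lines, 500 cells per well, exposed to MIPE 4.0 library compounds for 48 h at 37C, 5% CO2. Viability from ATP by CellTiter-Glo luminescence; normalised to DMSO (100%) and media-only (0%) wells.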

[4] = Quantitative High-Throughput drug screen in 47 multiple myeloma cell lines against the NCATS MIPE library collection: H1112_PLB cell viability assay (AID 1918967; also: nearly all actives have a fitted effect of over 30% in size; also: potency is read from the fitted curve at half-maximal effect); settings: H1112 myeloma cells viability, ATP luminescence, 48 h; series mostly up to 45.8 µM
Outline: as §1

[5] = Quantitative High-Throughput drug screen in 47 multiple myeloma cell lines against the NCATS MIPE library collection: Karpas25_ECACC cell viability assay (AID 1918968; also: nearly all actives have a fitted effect of over 35% in size; also: potency is read from the fitted curve at half-maximal effect); settings: Karpas25 myeloma viability, CellTiter-Glo ATP, 48 h; viability (% of control): at 45.8 µM (top of the series)
Outline: as §1

[6] = Quantitative High-Throughput drug screen in 47 multiple myeloma cell lines against the NCATS MIPE library collection: KMS12BM_JCRB cell viability assay (AID 1918971); settings: KMS12BM myeloma viability, CellTiter-Glo ATP, 48 h; series mostly up to 45.8 µM; also: potency is read from the fitted curve at half-maximal effect; nearly all actives have a fitted effect of over 35% in size
Outline: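 Steps: seed 500 cells per well; pin-transfer MIPE 4.0 library; incubate 48 h at 37C, 5% CO2, humidified; add CellTiter-Glo, 5 min room temperature; read luminescence.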

[7] = Quantitative High-Throughput drug screen in 47 multiple myeloma cell lines against the NCATS MIPE library collection: MMM1_PLB cell viability assay (AID 1918976); settings: MMM1 myeloma cells viability, CellTiter-Glo, 48 h; series mostly up to 45.8 µM; also: potency is read from the fitted curve at half-maximal effect; nearly all actives have a fitted effect of over 35% in size
Outline: (§2)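 500 cells/well per myeloma line exposed to pinned MIPE 4.0 compounds for 48 h at 37 °C, 5% CO2. Viability read as ATP by CellTiter-Glo luminescence, normalised to DMSO-only (100%) and media-only (0%) wells.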

[8] = Quantitative High-Throughput drug screen in 47 multiple myeloma cell lines against the NCATS MIPE library collection: MOLP8_DSMZ cell viability assay (AID 1918977); settings: MOLP8 myeloma viability, CellTiter-Glo ATP luminescence, 48 h; series mostly up to 45.8 µM; also: nearly all actives have a fitted effect of over 45% in size; also: potency is read from the fitted curve at half-maximal effect
Outline: as §2

[9] = Quantitative High-Throughput drug screen in 47 multiple myeloma cell lines against the NCATS MIPE library collection: NCIH929_DSMZ cell viability assay (AID 1918978); settings: NCI-H929 myeloma viability, CellTiter-Glo ATP, 48 h; viability, % of control: at 45.8 µM (top of the series); also: nearly all actives have a fitted effect of over 35% in size; also: potency is read from the fitted curve at half-maximal effect
Outline: as §2

[10] = Quantitative High-Throughput drug screen in 47 multiple myeloma cell lines against the NCATS MIPE library collection: MM1R_ATCC cell viability assay (AID 1918981); settings: MM1R multiple myeloma cells, CellTiter-Glo viability, 48 h; series mostly up to 45.8 µM; also: nearly all actives have a fitted effect of over 35% in size; also: potency is read from the fitted curve at half-maximal effect
Outline: as §2

[11] = Quantitative High-Throughput drug screen in 47 multiple myeloma cell lines against the NCATS MIPE library collection: L363_DSMZ cell viability assay (AID 1918984); settings: L363 myeloma viability, CellTiter-Glo ATP luminescence, 48 h; viability (% of control): at 45.8 µM (top of the series); also: nearly all actives have a fitted effect of over 40% in size; also: potency is read from the fitted curve at half-maximal effect
Outline: as §2

[12] = Quantitative High-Throughput drug screen in 47 multiple myeloma cell lines against the NCATS MIPE library collection: OPM1_PLB cell viability assay (AID 1918989); settings: CellTiter-Glo, 48 h; series mostly up to 45.8 µM; also: nearly all actives have a fitted effect of over 40% in size; also: potency is read from the fitted curve at half-maximal effect
Outline: as §2

[13] = Quantitative High-Throughput drug screen in 47 multiple myeloma cell lines against the NCATS MIPE library collection: SKMM1_PLB cell viability assay (AID 1919863); settings: SKMM1 myeloma viability, CellTiter-Glo ATP, 48 h; viability: active compounds read low; also: nearly all actives have a fitted effect of over 35% in size; also: potency is read from the fitted curve at half-maximal effect
Outline: as §2

[14] = Quantitative High-Throughput drug screen in 47 multiple myeloma cell lines against the NCATS MIPE library collection: U266_ATCC cell viability assay (AID 1919864); settings: U266 myeloma viability, CellTiter-Glo ATP luminescence, 48 h; series mostly up to 45.8 µM; also: nearly all actives have a fitted effect of over 35% in size; also: potency is read from the fitted curve at half-maximal effect
Outline: as §2

[15] = Quantitative High-Throughput drug screen in 47 multiple myeloma cell lines against the NCATS MIPE library collection: XG6_PLB cell viability assay (AID 1919865); settings: XG6 myeloma viability, CellTiter-Glo ATP luminescence, 48 h; viability (% of control): at 45.8 µM (top of the series); also: nearly all actives have a fitted effect of over 40% in size; also: potency is read from the fitted curve at half-maximal effect
Outline: as §2

[16] = Quantitative High-Throughput drug screen in 47 multiple myeloma cell lines against the NCATS MIPE library collection: VP6_DJ cell viability assay (AID 1919867); settings: ATP luminescence, 48 h; series mostly up to 45.8 µM; also: nearly all actives have a fitted effect of over 40% in size; also: potency is read from the fitted curve at half-maximal effect
Outline: as §2

[17] = Quantitative High-Throughput drug screen in 47 multiple myeloma cell lines against the NCATS MIPE library collection: PCM6_Riken cell viability assay (AID 1919870); settings: CellTiter-Glo ATP, 48 h; series mostly up to 45.8 µM; also: nearly all actives have a fitted effect of over 30% in size; also: potency is read from the fitted curve at half-maximal effect
Outline: as §2

[18] = Quantitative High-Throughput drug screen in 47 multiple myeloma cell lines against the NCATS MIPE library collection: RPMI8226_ATCC cell viability assay (AID 1919871); settings: RPMI8226 myeloma viability, CellTiter-Glo ATP luminescence, 48 h; series mostly up to 45.8 µM; also: potency is read from the fitted curve at half-maximal effect; nearly all actives have a fitted effect of over 30% in size
Outline: as §2

ICS = assay: qHTS profiling for inhibitors of Plasmodium falciparum proliferation (AID 504749); also: nearly all actives have a fitted effect of over 60% in size; also: potency is read from the fitted curve at half-maximal effect; settings: P. falciparum in erythrocytes, SYBR Green DNA, 72 h; series mostly up to 28.7 µM
Outline: (§3)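 P. falciparum-infected erythrocytes (0.3% parasitemia, 2.5% hematocrit) incubated with compound 72 h at 37 C, 5% CO2. Parasite DNA detected by SYBR Green after lysis, overnight at room temperature; normalised to 0.29 uM artemisinin and DMSO.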

N140 = assay: as above; settings: P. falciparum in erythrocytes, SYBR Green DNA, 72 h; series mostly up to 28.7 µM
Outline: as §3
Tags tell the direction and shape of the fitted curve.

O=C1CCc2cc(OCCCCc3nnnn3C3CCCCC3)ccc2N1
inconclusive: Potency [3] 2.96 µM [cytotoxic, partial curve, poor fit] | Potency [4] 37.2 µM [cytotoxic, single point] | Potency [5] 37.2 µM [cytotoxic, single point] | Potency [6] 0.0332 µM [rising, full curve, poor fit] | Potency [7] 0.0264 µM [rising, full curve, poor fit] | Potency [8] 7.43 µM [rising, partial curve, poor fit] | Potency [9] 29.6 µM [cytotoxic, single point] | Potency [13] 0.148 µM [rising, full curve, poor fit] | Potency [15] 18.7 µM [cytotoxic, partial curve] | Potency [18] 0.0021 µM [rising, full curve, poor fit] | Potency (N140) 3.55 µM [inhibitor, single point]
inactive: Potency [1] | Potency [2] | Potency [10] | Potency [11] | Potency [12] | Potency [14] | Potency [16] | Potency [17] | Potency (ICS)

O[C@@H]1CO[C@H]2[C@@H]1OC[C@@H]2O
inactive: Potency (ICS)

CC(N)C12CC3CC(CC(C3)C1)C2 (stereo not given)
inactive: Potency [2] | Potency [3] | Potency [4] | Potency [5] | Potency [8] | Potency [9] | Potency [10] | viability [13] 118% | Potency [15] | Potency [16] | Potency [17]
inconclusive: Potency [6] 0.209 µM [rising, full curve, poor fit] | Potency [7] 0.0021 µM [rising, full curve, poor fit] | Potency [11] 0.0105 µM [rising, full curve, poor fit] | Potency [12] 0.0012 µM [rising, full curve, poor fit] | Potency [14] 0.0021 µM [rising, full curve, poor fit] | Potency (N140) 12.6 µM [inhibitor, single point]

COc1cc([C@H]2Oc3cc([C@H]4Oc5cc(O)cc(O)c5C(=O)[C@@H]4O)ccc3O[C@@H]2CO)ccc1O
inconclusive: Potency (N140) 8.91 µM [inhibitor, partial curve]

O=C(O)CN(CCN(CC(=O)O)CC(=O)O)CCN(CC(=O)O)CC(=O)O
inactive: Potency [1]

Cn1c(=O)c2c(ncn2CCO)n(C)c1=O
inactive: Potency (ICS)

CC(C)N(CCC(=O)c1ccc2ccccc2c1)Cc1ccccc1
inconclusive: Potency [1] 22.4 µM [inhibitor, single point]

O=C(O)C[C@H](O)C[C@H](O)C=Cc1c(C2CC2)nc2ccccc2c1-c1ccc(F)cc1
active: Potency [9] 3.72 µM | Potency [13] 11.8 µM | Potency [18] 16.6 µM
inconclusive: Potency [6] 18.7 µM [cytotoxic, partial curve, poor fit] | Potency [14] 1.32 µM [cytotoxic, full curve, poor fit] | Potency [17] 11.8 µM [cytotoxic, partial curve, poor fit]

CCOC(=O)N1CCC(=C2c3ccc(Cl)cc3CCc3cccnc32)CC1
inactive: Potency [2] | Potency [4] | Potency [5] | Potency [11]
inconclusive: Potency [3] 26.4 µM [cytotoxic, single point] | Potency [8] 29.6 µM [cytotoxic, partial curve, poor fit] | Potency [10] 26.4 µM [cytotoxic, single point] | Potency [12] 0.0021 µM [cytotoxic, full curve, poor fit] | Potency [15] 3.32 µM [cytotoxic, full curve, poor fit] | Potency [16] 0.0033 µM [rising, full curve, poor fit] | Potency [18] 23.5 µM [cytotoxic, partial curve]
active: Potency [7] 23.5 µM

From PubChem BioAssay (NCATS)
